Measurements: PubChem BioAssay AID1159614 (National Center for Advancing Translational Sciences (NCATS), 2016)
The campaign covered roughly 45,000 compounds. About 65 (0.1%) were called active. Calls follow the shape of the dose curve; as a rule, active = well fitted activation curve with a large enough effect; inconclusive = small, poorly fitted or top-dose-only effect; inactive = no such curve, though single readings can be large or run the other way. The list shows a part of the results.

target: Galactocerebrosidase (Homo sapiens) (UniProt P54803); assay: A Novel Cell-Based Assay to Identify Small Molecules for B -Galactocerebrosidase; conditions: 145M-Twi-hGALC-G270D cells (Twitcher mouse brain line with human GALC G270D), HMU-beta-Gal fluorescence, 48 h; series mostly up to 57.5 µM; activation: at the top concentration; also: 0% is about no effect; nearly all actives have a fitted effect of over 65% in size
UniProt P54803, sequence (P54803 whole entry, looked up): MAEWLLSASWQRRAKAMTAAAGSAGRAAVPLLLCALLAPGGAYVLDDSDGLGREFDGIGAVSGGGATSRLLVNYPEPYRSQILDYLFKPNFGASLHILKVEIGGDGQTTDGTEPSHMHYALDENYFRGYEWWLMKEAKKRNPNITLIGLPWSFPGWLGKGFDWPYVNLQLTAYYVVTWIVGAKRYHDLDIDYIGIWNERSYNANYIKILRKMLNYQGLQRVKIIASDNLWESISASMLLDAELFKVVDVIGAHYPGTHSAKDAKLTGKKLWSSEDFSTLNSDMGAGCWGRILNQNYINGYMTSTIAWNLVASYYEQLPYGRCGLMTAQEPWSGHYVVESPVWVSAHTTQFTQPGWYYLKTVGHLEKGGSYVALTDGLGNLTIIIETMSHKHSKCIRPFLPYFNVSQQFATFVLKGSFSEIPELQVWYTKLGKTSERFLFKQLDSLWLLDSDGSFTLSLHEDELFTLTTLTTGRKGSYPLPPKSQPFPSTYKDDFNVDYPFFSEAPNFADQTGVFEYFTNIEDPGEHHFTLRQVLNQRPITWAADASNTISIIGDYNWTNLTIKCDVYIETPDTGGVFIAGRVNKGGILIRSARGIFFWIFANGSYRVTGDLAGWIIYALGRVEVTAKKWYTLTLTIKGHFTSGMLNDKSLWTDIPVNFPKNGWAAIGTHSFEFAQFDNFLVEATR
Summary of the method: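 Live 145M-Twi cells (Twitcher mouse brain-derived, GALC-null) stably expressing human GALC-G270D, with a wild-type GALC line, were compound-treated. Residual GALC activity was then read as fluorescence from 0.1 mM final HMU-β-gal at pH 5.2; higher signal means activation.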

activation, inactive:
Cc1ccc(O)c(NC(=O)c2nc3nc(C)cc(C(F)F)n3n2)c1 -6.01%
COc1cccc(N2CCN(C(=O)c3nc(-c4ccc(Cl)cc4)n4c3CCCCC4)CC2)c1 -15.1%
COCCn1c(SCC(=O)c2c[nH]c3ccccc23)nc2cc(C(=O)NCC(C)C)ccc2c1=O -1.57%
O=c1oc2ccc3ccccc3c2cc1-c1nnc(Nc2cc(C(F)(F)F)ccc2Cl)s1 -6.27%
Cc1[nH]c2c(C)cccc2c1CCNC(=O)c1cc2ccccc2oc1=O -13.3%
Cc1ccc(N(CC(=O)Nc2ccc(OC(F)(F)F)cc2)S(=O)(=O)c2c(C)noc2C)cc1 -9.52%
CCOC(=O)c1cc2c(=O)n3ccccc3nc2n(CC2CCCO2)c1=NC(=O)c1cc(C)cc(C)c1 (stereo unspecified) -10.9%
COc1ccc(CC(=O)Nc2sc3c(c2C(=O)Nc2ccc(C)cc2)CCCCC3)cc1 -8.94%
CCc1cccc(C)c1Nc1c(-c2cccc(O)c2)nc2sccn12 -25.4%
Cc1[nH]c2ccccc2c1C1(O)C(=O)N(Cc2ccc(Cl)cc2)c2ccccc21 (stereo unspecified) -22.8%
O=S(=O)(c1cccc(Cl)c1)c1nnn2c1nc(NC1CCCC1)c1sccc12 -15.8%
COc1cc(NC(=O)CSc2nc3nc(C)c(Cc4ccccc4)c(C)n3n2)cc(OC)c1OC 22.6%
Cc1nc(N2CCCC2)ncc1C(=O)NCc1ccccc1Cl -9.87%
CCc1nnc2n1N(C(C)=O)C(c1ccc(C(C)(C)C)cc1)=C(C(C)=O)S2 -17.1%
CCc1ccc(CNC(=O)c2cc3c(s2)-c2ccccc2OC3)cc1 3.81%
COC(=O)c1ccc(NC(=O)C2CCN(S(=O)(=O)c3ccc4c(c3)CCCN4C(C)=O)CC2)cc1 -19.2%
CN(CC(=O)Nc1ccc(Br)cc1)S(=O)(=O)c1cccc2nsnc12 -15.2%
COc1ccc(NC(=O)C2CCN(C(=O)c3sc4nc[nH]c(=O)c4c3C)CC2)cc1Cl 1.66%
COc1ccc(NC(=O)c2oc3ccccc3c2NC(=O)c2cc(C)cc(C)c2)c(OC)c1 4.19%
CCOC(=O)C1CCN(c2nc3ccccc3nc2Cl)CC1 -7.53%
COc1ccccc1NC(=O)CSc1nc2c(oc3ccccc32)c(=O)n1-c1ccccc1F -5.22%
Cc1cc2oc(C(=O)N(Cc3ccc(N(C)C)cc3)CC3CCCO3)c(C)c2cc1Cl (stereo unspecified) -4.84%
O=C(O)c1ccc(OCCN2CCCCC2)cc1 -7.17%
CN1C(=O)Cc2cc(S(=O)(=O)CCC(=O)N3CCN(c4ccc(Cl)cc4)CC3)ccc21 -19.8%
C=Cc1ccc(Cn2c(C)c(CNCc3ccc(SC)cc3)c(C(=O)O)c2C)cc1 0.306%
CN(Cc1ccccc1)c1ccc(-c2nc(-c3ccccc3)no2)cc1[N+](=O)[O-] -39.7%
Cc1cc(C)c(NC(=O)C(=O)NCC(c2cccnc2)N2CCN(c3ccccc3F)CC2)c(C)c1 (stereo unspecified) -16%
CCc1cccc(NC(=O)c2cc3c(s2)-c2ccccc2OC3)c1 11.1%
CC(=O)Nc1cccc(NC(=O)CSc2nccn2C2CCCC2)c1 -16%
O=C(CN1C(=O)c2cccc3cccc1c23)Nc1cccc(F)c1 -14.8%
CCC(Sc1ncc(S(=O)(=O)c2ccc(Cl)cc2)c(=O)[nH]1)C(=O)Nc1ccc(OC)cc1 (stereo unspecified) -19.5%
COc1ccc(Cl)cc1NC(=O)CSc1nnc2[nH]c(=O)cc(-c3ccccc3)n12 -12.7%
Cc1ccc2[nH]c(=O)c3cc(C(=O)N(CCCOC(C)C)Cc4ccco4)sc3c2c1 -37.3%
COC(=O)c1ccc2c(=O)n3nc(Nc4cc(OC)ccc4OC)sc3nc2c1 -11.5%
Cc1ccc(OCc2nc(C#N)c(NCCc3ccccc3)o2)cc1 -5%
Cc1ccccc1NC(=O)CSC1=Nc2ccccc2C2=NC(Cc3ccccc3)C(=O)N12 (stereo unspecified) -9.79%
O=C(NCc1nc2ccccc2n1Cc1ccccc1Cl)c1ccccc1 -18.5%
COC(=O)c1ccccc1NC(=O)c1oc2ccc3c(c2c1C)C(=O)CC(C)(C)O3 -2.91%
COc1ccc(-c2nn(-c3ccc(F)cc3)c3c2cnc2ccc(F)cc23)cc1OC -14.7%
CCCc1nn2c(=O)cc(COC(=O)C3CCCCC3)nc2s1 -23.5%
Cc1ccc(NC(=O)CCCn2c(=O)c3cccn3c3ccccc32)cc1Cl -2.39%
COc1ccc(OCC(=O)Nc2ccc(Cl)c(-c3nc4ncccc4o3)c2)cc1 2.43%
O=C1CN(C(=O)COc2ccccc2)C(c2ccc(F)cc2)c2cc(Br)ccc2N1 (stereo unspecified) -16.9%
COC(=O)c1cc2sc(Cl)cc2n1CC(=O)Nc1cc(OC)cc(OC)c1 -13%
CCN(CCCNC(=O)c1cc(Nc2ccc(OC)cc2)nc2ccccc12)c1cccc(C)c1 -0.149%
O=C(Nc1ccccc1F)c1nc(SCc2ccccc2F)ncc1Cl -12.1%
Cc1ccc(Cl)cc1NC(=O)Nc1cn(CC(C)C)c(=O)c2ccccc12 -9.12%
Cc1ccccc1CN1C(=O)c2ccccc2Sc2ccc(C(=O)NCc3ccccc3)cc21 -6.93%
COc1cccc(CNC(=O)c2ccc3c(c2)N(Cc2ccc(F)cc2Cl)C(=O)c2ccccc2S3)c1 -23.7%
CCOc1ccc(CCNC(=O)Cn2ccc3cc(S(=O)(=O)N4CCCCC4)ccc32)cc1 -15.1%
COCCn1c(SCC(=O)c2c(C)[nH]c3ccccc23)nc2cc(C(=O)NC(C)C)ccc2c1=O -11.9%
Cc1ccc2c(C)c(C(=O)NCC(c3ccc(Cl)cc3)N3CCOCC3)oc2c1 (stereo unspecified) -9.88%
Cc1ccc(NC(=O)NC(C)c2c(-n3cccc3)sc(C)c2C)cc1F (stereo unspecified) -9.46%
COc1cc(NC(=O)C2CCN(c3nnc(C)c4c(C)n(-c5ccccc5)nc34)CC2)cc(OC)c1 6.43%
Cc1ccc(-n2c(=O)[nH]c3cc(C(=O)NCCc4ccccc4)ccc3c2=O)cc1 0.801%
COc1ccc(-n2nc(C(=O)Nc3ccc(C)cn3)c3c4ccccc4n(C)c3c2=O)cc1Cl -9.66%
Cc1ccc(-c2nc(S(=O)(=O)c3ccc(C)cc3)c(SCC(=O)c3ccccc3)o2)cc1 -31.8%
NC1(c2ccc(-c3nc4ccn5c(=O)[nH]nc5c4cc3-c3ccccc3)cc2)CCC1 -2.75%
Cc1cccc(C)c1NC(=O)Cn1c(=O)n(Cc2ccccc2Cl)c(=O)c2cccnc21 -8.75%
CCN(C(=O)CSc1nc2ccccc2n1Cc1ccccc1C#N)c1ccccc1 -8.72%
CCOC(=O)c1ccc(NC(=O)CSc2nnc(-c3ccncc3)n2-c2ccccc2)cc1 -16.7%
